Measured values: paper PMC4336329 (PLoS ONE, 2015)
The campaign covered roughly 310,000 compounds. About 14,000 (4.5%) showed an effect of 50% or more. Effects have a minus sign here. The list shows a part of the results.

target: human ether-à-go-go-related gene (hERG) potassium channel (human, UniProt Q12809); assay: primary screen, population patch clamp on CHO cells stably expressing hERG
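Note: peak tail current of the secondary pulse compared with the same well before compound.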

Sequence of human ether-à-go-go-related gene (hERG) potassium channel (Q12809 whole entry, looked up): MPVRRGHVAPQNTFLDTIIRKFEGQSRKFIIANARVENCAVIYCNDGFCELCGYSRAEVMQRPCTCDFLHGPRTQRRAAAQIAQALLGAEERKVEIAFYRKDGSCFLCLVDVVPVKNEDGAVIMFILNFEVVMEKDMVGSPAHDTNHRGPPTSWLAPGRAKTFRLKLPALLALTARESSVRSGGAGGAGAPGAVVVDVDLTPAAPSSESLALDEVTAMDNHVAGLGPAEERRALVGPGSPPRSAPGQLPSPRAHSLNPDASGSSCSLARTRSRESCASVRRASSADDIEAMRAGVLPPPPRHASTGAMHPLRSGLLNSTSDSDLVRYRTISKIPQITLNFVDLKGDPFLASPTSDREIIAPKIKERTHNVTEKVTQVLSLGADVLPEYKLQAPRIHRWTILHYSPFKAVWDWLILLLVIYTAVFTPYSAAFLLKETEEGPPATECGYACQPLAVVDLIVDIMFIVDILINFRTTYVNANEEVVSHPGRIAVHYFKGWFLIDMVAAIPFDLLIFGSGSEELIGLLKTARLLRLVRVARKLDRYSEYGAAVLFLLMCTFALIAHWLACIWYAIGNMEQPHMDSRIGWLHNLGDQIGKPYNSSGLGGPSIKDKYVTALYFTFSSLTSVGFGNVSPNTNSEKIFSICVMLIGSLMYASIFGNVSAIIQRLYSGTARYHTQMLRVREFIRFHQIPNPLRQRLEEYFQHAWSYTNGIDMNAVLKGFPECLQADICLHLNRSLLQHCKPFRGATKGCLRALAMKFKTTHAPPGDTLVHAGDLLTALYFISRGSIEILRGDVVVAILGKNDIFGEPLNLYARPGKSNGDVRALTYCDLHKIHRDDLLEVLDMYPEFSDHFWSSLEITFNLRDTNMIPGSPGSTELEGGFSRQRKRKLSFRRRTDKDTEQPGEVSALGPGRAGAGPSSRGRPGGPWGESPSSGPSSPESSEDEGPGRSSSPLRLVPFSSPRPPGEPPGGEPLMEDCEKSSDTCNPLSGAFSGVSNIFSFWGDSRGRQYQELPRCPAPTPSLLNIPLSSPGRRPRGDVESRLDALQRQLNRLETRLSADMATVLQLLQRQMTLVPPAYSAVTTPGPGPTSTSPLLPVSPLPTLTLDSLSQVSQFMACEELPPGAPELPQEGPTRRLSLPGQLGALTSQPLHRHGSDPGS

Compared with CCc1ccc(S(=O)(=O)NCc2cccs2)cc1, COc1cc(/C=N/NC(N)=O)ccc1OC(=O)c1cccs1 is lower in “hERG current change (%, negative = inhibition) at 10uM” value: -17.6% for the first, -20.9% for the second.

First: CCCCNC(=O)c1[nH]c(C)c(C(C)=O)c1C
Second: CCOC(=O)C1=C(CSCC(=O)OC)NC(=O)NC1c1cc(C)ccc1C (centres unmarked)
The “hERG current change (%, negative = inhibition) at 10uM” value of the first is higher: 13.5% for the first, -4.23% for the second.

Going from c1ccc(-c2noc(CCC3CCCC3)n2)cc1 to CCN(Cc1ccccc1)Cc1nc(CCc2ccccc2)no1, the “hERG current change (%, negative = inhibition) at 10uM” value falls from 17.8% to -1.65%.

Going from O=C(Nc1cc(C(F)(F)F)ccc1N1CCOCC1)c1ccc2ccccc2n1 to COc1ccccc1NC(=O)Cn1nc(C(F)(F)F)c2c1CCCC2, the “hERG current change (%, negative = inhibition) at 10uM” value falls from 26.2% to -5.47%.

First: Cc1ccc(NC(=O)COC(=O)c2ccn(C)n2)cc1
Second: Cc1csc(OCC(=O)Nc2ccc(C)c(C)c2)n1
The “hERG current change (%, negative = inhibition) at 10uM” value of the first is lower: -3.92% for the first, 0.352% for the second.

First: Cc1ccc(NC(=S)Nc2ccccn2)cc1C
Second: Cc1ccc(NC(=O)CCC(=O)NNC(=O)COc2ccccc2)cc1C
The “hERG current change (%, negative = inhibition) at 10uM” value of the first is lower: 6.99% for the first, 16.7% for the second.

Going from CC(C)Cn1c(NCCN(C)C)nc2c1c(=O)[nH]c(=O)n2C to O=C1c2ccccc2C(=O)N1CCc1nc2ccccc2c(=O)n1Cc1ccco1, the “hERG current change (%, negative = inhibition) at 10uM” value falls from 10.1% to -61.8%.

First: N#CCCn1cc(/C=N/N=C2\NC(=O)C(CC(=O)O)S2)c(-c2ccc(F)cc2)n1 (centres unmarked)
Second: Cc1ccc(C(=O)NC2CCN(CCCC(=O)c3ccc(F)cc3)CC2)cc1
The “hERG current change (%, negative = inhibition) at 10uM” value of the first is higher: 10.9% for the first, -74% for the second.

First: CC(/C=N/NC(=O)c1ccccc1F)c1ccccc1 (centres unmarked)
Second: O=C(NCc1ccccc1F)c1ccncc1
The “hERG current change (%, negative = inhibition) at 10uM” value of the first is higher: 14.8% for the first, 12.3% for the second.

First: COc1ccccc1OCC(=O)NNC(=O)C(=O)N1CCCC1
Second: COc1cc(NC(=O)c2cccc(C)c2)c(OC)cc1NC(=O)CN1CCOCC1
The “hERG current change (%, negative = inhibition) at 10uM” value of the first is higher: 16.3% for the first, -3.88% for the second.

First: COC(=O)c1ccc(N2CCN(S(=O)(=O)c3c(C)cc(C)cc3C)CC2)c([N+](=O)[O-])c1
Second: O=C(Nc1ccc(F)cc1)C(c1ccccc1)N1CCN(S(=O)(=O)c2c(F)cccc2F)CC1 (centres unmarked)
The “hERG current change (%, negative = inhibition) at 10uM” value of the first is higher: 21.4% for the first, -8.26% for the second.

Going from CC(C(=O)Nc1ccc2c(c1)OCO2)c1ccc([N+](=O)[O-])cc1 (centres unmarked) to CCC(C)N(C(=O)c1csnn1)C(C(=O)NCc1ccc(F)cc1)c1ccccc1 (centres unmarked), the “hERG current change (%, negative = inhibition) at 10uM” value rises from -8.75% to 0.665%.

First: O=C(C#Cc1ccccc1)c1ccco1
Second: CN1CCN(c2oc(-c3ccco3)nc2S(=O)(=O)c2ccccc2)CC1
The “hERG current change (%, negative = inhibition) at 10uM” value of the first is higher: 5.83% for the first, -37.9% for the second.

First: CC1(C)CC(=O)C(C=NCC2CCN(C(=O)Cc3ccccc3)CC2)=C(O)C1
Second: CC(=O)Nc1ccc(CC(=O)N2CCN(Cc3ccccc3)CC2)cc1
The “hERG current change (%, negative = inhibition) at 10uM” value of the first is lower: -6.65% for the first, 9.01% for the second.

Compared with CCCN(CC1CC1)C(=O)CSc1nnc(-c2cc(-c3cccs3)nc3ccccc23)o1, CCCN(CC(=O)Nc1ccccc1C)C(=O)CCCc1c[nH]c2ccccc12 is higher in “hERG current change (%, negative = inhibition) at 10uM” value: -5.05% for the first, -1.8% for the second.

Going from O=C(CNC(=O)c1ccccc1Br)NCCSc1ccc(Br)cc1 to O=C(Cc1ccc(Cl)cc1)NCCCNC(=O)c1cccnc1, the “hERG current change (%, negative = inhibition) at 10uM” value rises from -35.1% to 28.5%.

Compared with O=C(O)c1cn[nH]c1-n1cnnn1, Cc1cc(C)nc(-n2nc(C)c(C3(O)C(=O)Nc4ccccc43)c2N)n1 (centres unmarked) is higher in “hERG current change (%, negative = inhibition) at 10uM” value: -9.46% for the first, 3.35% for the second.

Compared with COCCN1C(=O)C(CC(=O)Nc2ccccc2)SC1=Nc1ccc(OC)cc1 (centres unmarked), CCCCn1c(/N=C/c2cc(OC)ccc2O)nc2ccccc21 is higher in “hERG current change (%, negative = inhibition) at 10uM” value: 3.45% for the first, 5.05% for the second.

Going from COc1cccc2c3c(c(=O)[nH]c12)CCC(C)(C)O3 to CC1(C)CC(=O)C=C(c2cccc3c2oc2ccccc23)C1, the “hERG current change (%, negative = inhibition) at 10uM” value falls from 5.53% to -2.67%.

Going from O=C(c1ccoc1)N1CCCC(Nc2ccc(F)c(F)c2)C1 (centres unmarked) to Cc1ccc(NC2CCCN(C(=O)CCC3=NNC(=O)CC3)C2)cc1C (centres unmarked), the “hERG current change (%, negative = inhibition) at 10uM” value falls from 10.9% to -18.3%.

Compared with CC1(C)CC(=O)c2cc(OCC(=O)N3CCOCC3)ccc2O1, CN(Cc1nc(-c2cccs2)no1)CC1(N2CCOCC2)CCCCC1 is lower in “hERG current change (%, negative = inhibition) at 10uM” value: -0.981% for the first, -24.2% for the second.

First: O=C(Oc1ccc(=O)n(-c2ccccc2)n1)c1ccccc1
Second: O=S(=O)(c1ccccc1)N1CCN(C(=S)Nc2ccccc2)CC1
The “hERG current change (%, negative = inhibition) at 10uM” value of the first is lower: -6.05% for the first, 5.75% for the second.

First: Cc1csc(NC(=O)CSc2nnc(NC(=O)COc3ccc(Cl)cc3)s2)n1
Second: COc1ccc(C)cc1NC(=O)CCC(=O)Nc1nnc(C(F)(F)F)s1
The “hERG current change (%, negative = inhibition) at 10uM” value of the first is higher: 31.5% for the first, 25.1% for the second.

Compared with CCOC(=O)N1CCN(C(=O)CSc2nc3c(cnn3-c3ccc(Cl)cc3)c(=O)[nH]2)CC1, Cc1cc(C)n(-c2ccn(Cc3ccc(Cl)cc3Cl)c(=O)n2)n1 is higher in “hERG current change (%, negative = inhibition) at 10uM” value: -8.66% for the first, 5.39% for the second.

First: COC(=O)C1=CN(c2ccc(OC)cc2)C=C(C(=O)OC)C1c1cccc(F)c1
Second: CC1(C)C(=O)Nc2ccccc2N1C(=O)COC(=O)CNS(=O)(=O)c1ccc(F)c(F)c1F
The “hERG current change (%, negative = inhibition) at 10uM” value of the first is higher: 10.6% for the first, -6.15% for the second.

Compared with CN(C)C(=O)Oc1ccc[n+](C)c1.[Br-], COC(=O)c1ccc(NC(=O)CCN2C(=O)C3C4CCC(C4)C3C2=O)cc1 (centres unmarked) is higher in “hERG current change (%, negative = inhibition) at 10uM” value: -14.7% for the first, -5.16% for the second.

First: CN(C)NC(=S)NC1CCS(=O)(=O)C1 (centres unmarked)
Second: Cc1ccsc1/C=C(\C#N)C(=O)NCCCN1CCOCC1
The “hERG current change (%, negative = inhibition) at 10uM” value of the first is higher: 19.1% for the first, -10.6% for the second.

First: NC(=S)N=Nc1c(O)n(CCCl)c2ccccc12
Second: CCC(C)Nc1nc(-c2c[nH]c3ccccc23)cs1 (centres unmarked)
The “hERG current change (%, negative = inhibition) at 10uM” value of the first is higher: 19.5% for the first, -12.9% for the second.

First: Cc1cc(C)n2cc(CSc3ccccn3)nc2n1
Second: COc1cc(N2CN=c3s/c(=C\c4ccccn4)c(=O)n3C2)cc(OC)c1OC
The “hERG current change (%, negative = inhibition) at 10uM” value of the first is higher: 13.6% for the first, -9.45% for the second.

C=CCN(C(=O)CCC(=O)Nc1cc(C)on1)C(C(=O)NC(C)(C)C)c1cccc(OC)c1OC (centres unmarked) was tested, and the “hERG current change (%, negative = inhibition) at 10uM” value was 15.3%.
